# Among all 280,000 compounds or so, about 100 (0.036%) were called active. Inconclusive means that the source gave no clear call. Such entries were picked first, then a sample of the others. The call rests on the fitted dose curve; in most records, active means well fitted inhibition curve with a large enough effect in the signal ratio, with a control signal flat (not every such curve was filed as active); inconclusive means small, poorly fitted or top-dose-only effect, or effect the other way, or a change in a side signal; inactive means no such curve, though single readings can be large or run the other way; the % refers to the signal ratio. Where the call is inconclusive, the potency comes from a doubtful curve fit. “Side channel” marks fits to a control or component signal instead of the main read-out.
# Biological target: Muscleblind-like protein 1 (Homo sapiens) (UniProt Q9NR56)
# Experiment: qHTS Assay for Inhibitors of MBNL1-poly(CUG) RNA binding
# Settings: TR-FRET MBNL1-His/biotin-(CUG)12 binding, 665/545 ratio; activity change, negative = inhibition: at 57.5 µM (top of the series)
# Method in brief: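 Inhibition of protein-RNA binding appears as loss of TR-FRET between terbium anti-His antibody on MBNL1-His and streptavidin-XL665 on biotin-(CUG)12. Activity is normalized to buffer-only and uninhibited-complex controls.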
# On the % scale 0 is the no-effect control and ±100 the full control effect; potency means the concentration at half of the fitted maximal effect; tags describe the fitted curve by direction and shape or compound fluorescence and quenching.
# Sequence of UniProt Q9NR56 (Q9NR56 whole entry, looked up): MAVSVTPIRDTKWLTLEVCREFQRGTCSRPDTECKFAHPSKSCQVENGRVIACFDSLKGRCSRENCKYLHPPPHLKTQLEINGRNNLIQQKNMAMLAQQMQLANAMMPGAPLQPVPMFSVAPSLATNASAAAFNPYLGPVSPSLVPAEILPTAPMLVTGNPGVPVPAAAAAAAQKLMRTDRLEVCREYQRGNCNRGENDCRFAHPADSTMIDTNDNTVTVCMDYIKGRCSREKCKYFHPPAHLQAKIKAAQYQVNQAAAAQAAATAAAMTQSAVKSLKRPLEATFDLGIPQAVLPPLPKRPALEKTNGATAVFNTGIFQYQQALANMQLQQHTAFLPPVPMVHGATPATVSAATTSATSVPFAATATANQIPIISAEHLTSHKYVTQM
Compound,Potency,"activity change, negative = inhibition"
CC(C)n1c(O)c(N=NC(=O)Cn2ccc(C(F)(F)F)n2)c2ccccc21,"inconclusive: 31.6 µM [quencher, side channel, single point]",
O=[N+]([O-])c1cccc(-c2cn(-c3ccccc3)c(=S)[nH]2)c1,"inconclusive: 2.24 µM [quencher, side channel, partial curve, poor fit]",
CN(C(=O)CN1C(=O)/C(=C/c2ccc(F)cc2)SC1=S)C1CCS(=O)(=O)C1 (stereo unspecified),"inconclusive: 2.51 µM [quencher, side channel, full curve]",
O=C(/C=C/Nc1cccc(F)c1)c1ccco1,"inconclusive: 11.2 µM [quencher, side channel, partial curve]",
C=CCSc1nc(-c2ccc3c(c2)OCO3)cc(C(F)(F)F)c1C#N,"inconclusive: 39.8 µM [fluorescent, single point]",
COc1cccc(CN2C(=NC(=O)C3CC3)SC3CS(=O)(=O)CC32)c1 (stereo unspecified),,inactive: -8.4%
CC(NC(=O)c1cc(-c2ccncc2)nc2ccc(Br)cc12)C1CCCO1 (stereo unspecified),"inconclusive: 15.8 µM [quencher, side channel, partial curve]",
O=C(CCNC(=O)c1ccc([N+](=O)[O-])cc1)NCCCN1CCCC1=O,"inconclusive: 15.8 µM [quencher, side channel, partial curve]",
C=CCNC(=S)N1CCN(c2ccc([N+](=O)[O-])cc2)CC1,"inconclusive: 7.94 µM [activator, partial curve]",
O=[N+]([O-])c1ccc(-c2ccc(/C=N/n3cnnc3)o2)c(Br)c1,"inconclusive: 1.58 µM [quencher, side channel, full curve]",
COc1ccc(Oc2nnnn2-c2ccccc2)cc1,"inconclusive: 0.631 µM [quencher, side channel, full curve, poor fit]",
CC1CN(C(=S)SCC(=O)c2ccc([N+](=O)[O-])cc2)CC(C)O1 (stereo unspecified),"inconclusive: 4.47 µM [quencher, side channel, partial curve]",
CN1CCN(C2=C(NS(=O)(=O)c3ccccc3)C(=O)c3ccccc3C2=O)CC1,"inconclusive: 11.2 µM [quencher, side channel, partial curve]",
O=c1c2c3c(sc2ncn1-n1cccc1)CCCCC3,"inconclusive: 3.16 µM [quencher, side channel, single point]",
Nc1cc([N+](=O)[O-])ccc1Nc1ccccc1,"inconclusive: 14.1 µM [quencher, partial curve]",
O=C1/C(=C/c2ccc(O)c(O)c2)Oc2cc(O)ccc21,"inconclusive: 17.8 µM [quencher, side channel, partial curve]",
Cc1cc(C)c(C#N)c(SCC(=O)Nc2ccccc2C(N)=O)n1,"inconclusive: 31.6 µM [fluorescent, side channel, single point]",
CCOC(=O)c1ccc(NC(=O)C23CCC(C)(C(=O)O2)C3(C)C)cc1 (stereo unspecified),,inactive: -12.4%
N#Cc1ccc(NC(=O)Nc2ccc(Cl)cc2)cc1,"inconclusive: 39.8 µM [quencher, side channel, single point]",
Cc1nc(SCc2nc3ccccc3[nH]2)c2oc3ccccc3c2n1,,inactive: -3.85%
CCOc1ccc(Nc2c3c(nc4ncnn24)CC(C)CC3)cc1 (stereo unspecified),,inactive: -15.5%

Compound,Potency,"activity change, negative = inhibition"
O=C(Cn1c(COc2ccc(Cl)cc2)nc2ccccc21)NCC(F)(F)F,"inconclusive: 0.631 µM [fluorescent, side channel, partial curve]",
CCCCNc1c2c3c(cccc3n(C)c1=O)C(=O)c1ccccc1-2,"inconclusive: 10 µM [quencher, side channel, partial curve]",
Cc1csc(N/N=C\c2cccnc2)n1,"inconclusive: 10 µM [quencher, side channel, partial curve]",
O=C1NC2=C(C(=O)CCC2)C(c2cccc([N+](=O)[O-])c2)N1 (stereo unspecified),"inconclusive: 15.8 µM [quencher, side channel, partial curve]",
c1ccc2c(c1)CC/C2=N/Nc1nc2ccccc2[nH]1,,inactive: -1.6%
O=C1[C@H]2[C@H](ON3CCCC[C@H]23)C(=O)N1c1ccc(Cl)cc1,,inactive: 1.42%
O=C(NCCCN1CCOCC1)C(=O)N/N=C/c1ccc2c(c1)OCO2,"inconclusive: 22.4 µM [quencher, side channel, single point]",
CCC(=O)N/N=C/c1ccc(-c2ccc([N+](=O)[O-])cc2)o1,"inconclusive: 2.82 µM [quencher, side channel, full curve]",
CN(C)S(=O)(=O)N1CCN(CC(O)COc2ccc3cc(Br)ccc3c2)CC1 (stereo unspecified),,inactive: 14%
COc1ccc(CCNC(=O)C2CCCN2C(=O)Nc2cccc(OC)c2)cc1 (stereo unspecified),"inconclusive: 56.2 µM [quencher, side channel, partial curve]",
CN1CCN(C(=O)c2cc([N+](=O)[O-])ccc2Cl)CC1,"inconclusive: 25.1 µM [quencher, side channel, partial curve]",
COc1ccc(-c2nc3n(c2C)Cc2ccccc2-3)cc1,,inactive: -2.7%
COc1ccccc1N1CCN(C2CCCN(C(=O)c3cc(C4CC4)on3)C2)CC1 (stereo unspecified),,inactive: -2.08%
O=C(COC(=O)[C@@H]1CC(O)CN1S(=O)(=O)c1ccccc1[N+](=O)[O-])Nc1ccc2ccccc2c1 (stereo partly specified),"inconclusive: 39.8 µM [quencher, side channel, single point]",
Cc1cc(/C=C2/NC(=O)NC2=O)c(C)n1-c1ccccn1,"inconclusive: 31.6 µM [quencher, side channel, single point]",
Nc1nc2cc3ccccc3cc2[nH]c1=O,"inconclusive: 15.8 µM [quencher, single point]",
Cc1cc(Nc2cc(F)ccc2C)n2nc(C)nc2n1,"inconclusive: 50.1 µM [inhibitor, partial curve]",
COc1ccc([N+](=O)[O-])cc1NC(=O)CCc1ccccc1,"inconclusive: 12.6 µM [quencher, side channel, partial curve]",
CCOC(=O)N/N=C(\C)c1ccc(C)c([N+](=O)[O-])c1,"inconclusive: 2.82 µM [quencher, side channel, single point]",
O=[N+]([O-])c1cc([N+](=O)[O-])c2nonc2c1Nc1ccc(O)cc1,"inconclusive: 7.94 µM [quencher, side channel, partial curve]",
COc1ccc(/C=C/C(=O)N/C(=C\c2ccco2)C(=O)NCCc2nc3ccccc3[nH]2)cc1,"inconclusive: 3.55 µM [quencher, side channel, single point]",

Compound,Potency,"activity change, negative = inhibition"
N#Cc1c(-c2ccccc2)c(-c2ccccc2)nn(CC(=O)NNC(=O)Nc2ccc(Cl)cc2)c1=O,"inconclusive: 35.5 µM [quencher, side channel, single point]",
COc1ccc(NC(=O)Nc2ccon2)cc1OC,"inconclusive: 63.1 µM [inhibitor, single point]",
N#Cc1cn(CCOc2ccc(F)cc2)c2ccccc12,,inactive: 1.42%
Cn1c(N/N=C2\CCCc3ccccc32)nc2c1c(=O)n(Cc1ccccc1)c(=O)n2C,"inconclusive: 25.1 µM [fluorescent, side channel, partial curve]",
COC(=O)c1cc2c(C)[nH]c(C)c2cc(C(=O)OC)c1=O,"inconclusive: 22.4 µM [quencher, side channel, partial curve, poor fit]",
O=C(NCCN1CCN(C(=O)c2ccc([N+](=O)[O-])cc2)CC1)C(=O)NCc1ccccc1,"inconclusive: 8.91 µM [quencher, partial curve]",
Cc1ccc2nc3c(cc(C(=O)NCCN4CCOCC4)c(=N)n3CCCN3CCOCC3)c(=O)n2c1,"inconclusive: 11.2 µM [quencher, side channel, partial curve]",
O=C(Cc1ccc([N+](=O)[O-])cc1)N/N=C/c1cccs1,"inconclusive: 39.8 µM [quencher, single point]",
Cc1c(C(=O)c2ccc([N+](=O)[O-])cc2)c(=O)n(C)c(=O)n1C,"inconclusive: 17.8 µM [quencher, side channel, partial curve]",
Cn1cc([N+](=O)[O-])c(C(=O)Nc2cnn(Cc3ccc(F)cc3)c2)n1,"inconclusive: 15.8 µM [quencher, side channel, partial curve]",
N/C(=N\c1nc(C(F)(F)F)cc(=O)[nH]1)Nc1ccc(Cl)cc1,"inconclusive: 35.5 µM [fluorescent, side channel, partial curve, poor fit]",
O=C(CCCN1C(=O)c2cccnc2C1=O)Nc1ccccc1F,"inconclusive: 28.2 µM [quencher, side channel, single point]",
CCN(CC)CCn1c(NC(=O)c2ccc(C)cc2)nc2ccccc21,,inactive: 5.98%
O=c1c2sccc2nc(SCc2ccc([N+](=O)[O-])cc2)n1Cc1ccccn1,,inactive: 31.8%
O=C(COc1cccnc1[N+](=O)[O-])NCCc1ccccc1,"inconclusive: 31.6 µM [quencher, single point]",
COc1ccc(COCC(CC(C)C)N2CCN(C(=O)c3cccc(C(F)(F)F)c3)CCC2=O)cc1 (stereo unspecified),"inconclusive: 0.251 µM [inhibitor, full curve, poor fit]",
CCOc1ccccc1CN1CCNC(=O)C1CC(=O)NCc1ccccn1 (stereo unspecified),,inactive: 8.37%
CC(=O)c1c(C)[nH]c(C(=O)COc2cc(C)ccc2C(C)C)c1C,,inactive: -0.605%
CCOC(=O)C1CCCN(C(=O)c2ccc3c(c2)N(C)C(=O)/C(=C/c2ccccc2Cl)S3)C1 (stereo unspecified),,inactive: 1.36%
